Not every entry of the source has a single result; some have several. They are shown here; other results are not. The source may hold further records. The records of an entry are repeated measurements (runs, samples, wells, individuals or studies).
System: BDF1 mice, Adenocarcinoma 755 s.c., tumor weight T/C
Assay: NCI In Vivo Anticancer Drug Screen. Data for tumor model Adenocarcinoma 755 (subcutaneous) in B6D2F1 (BDF1) mice
Conditions: endpoint: mean tumor weight, higher = larger tumour
Outline: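 Compound activity was tested in mice carrying transplanted tumors. Survival or tumor size was measured, and each value is the treated-group measurement divided by that of the vehicle-treated control group (T/C).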

CC1C[C@@H]2[C@H]([C@@H](O)C[C@@]3(C)[C@H]2CC[C@]3(O)C(=O)CF)[C@@]2(C)CCC(=O)C=C12 (stereo partly drawn)
T/C (dose: 5.0 mg/kg/injection, schedule: Q01DX011 (sc), vehicle: steriod suspending solution): 42 % of control and 74 % of control

NC(=O)N(CCCl)N=O
T/C (dose: 0.45 mg/kg/injection, schedule: Q01DX011 (ip), vehicle: methylcellulose (MC)): 46 % of control and 104 % of control

CCCCN(C)N=Nc1ccc(S(N)(=O)=O)cc1
T/C (dose: 16.0 mg/kg/injection, schedule: Q01DX011 (ip), vehicle: carboxymethylcellulose (CMC)): 30 % of control and 81 % of control

N#CCCn1cnc2c(Cl)ncnc21
T/C (dose: 200.0 mg/kg/injection, schedule: Q01DX011 (ip), vehicle: other): 53 % of control and 91 % of control

COc1cc2c3c(c4cc(OC)c(OC)cc4c2cc1OC)CN1CCC[C@H]1C3
T/C (dose: 13.3 mg/kg/injection, schedule: Q01DX006 (ip), vehicle: water): 33 % of control and 90 % of control

CO[C@@]12[C@H](COC(N)=O)C3=C(C(=O)C(C)=C(N)C3=O)N1C[C@@H]1N[C@@H]12
T/C (dose: 0.4 mg/kg/injection, schedule: Q01DX011 (ip), vehicle: carboxymethylcellulose (CMC)): 70 % of control, 74 % of control, 102 % of control | T/C (dose: 0.8 mg/kg/injection, schedule: Q01DX011 (ip), vehicle: carboxymethylcellulose (CMC)): 18 % of control, 47 % of control, 67 % of control | T/C (dose: 225.0 micrograms/kg/injection, schedule: Q01DX011 (ip), vehicle: carboxymethylcellulose (CMC)): 62 % of control and 88 % of control

O=S1(=O)CCCO1
T/C (dose: 20.0 mg/kg/injection, schedule: Q01DX011 (ip), vehicle: carboxymethylcellulose (CMC)): 49 % of control and 83 % of control | T/C (dose: 40.0 mg/kg/injection, schedule: Q01DX011 (ip), vehicle: carboxymethylcellulose (CMC)): 40 % of control and 101 % of control

COc1cc2c(c(OC)c1OC)-c1ccc(N)c(=O)cc1[C@@H](NC(C)=O)CC2
T/C (dose: 1.0 mg/kg/injection, schedule: Q01DX011 (ip), vehicle: saline): 42 % of control and 75 % of control

Ic1ncnc2c1ncn2C1CCCCO1 (stereo not drawn)
T/C (dose: 40.0 mg/kg/injection, schedule: Q01DX011 (ip), vehicle: other): 66 % of control and 95 % of control

CC(=O)[C@@]1(O)[C@H](C)C[C@H]2[C@@H]3C=C(C)C4=Cc5c(cnn5-c5ccccc5)C[C@]4(C)[C@H]3[C@@H](O)C[C@@]21C
T/C (dose: 0.1 mg/kg/injection, schedule: Q01DX011 (sc), vehicle: steriod suspending solution): 15 % of control and 41 % of control

From PubChem BioAssay AID180 (DTP/NCI, 2004)
